The campaign covered roughly 310,000 compounds. About 14,000 (4.5%) showed an effect of 50% or more. The effect is printed as a negative number. This is one part of the list.
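Further: peak tail current of the secondary pulse compared with the same well before compound.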

The target of the assay is human ether-à-go-go-related gene (hERG) potassium channel (human, UniProt Q12809). Kind of assay: primary screen, population patch clamp on CHO cells stably expressing hERG.
Sequence of human ether-à-go-go-related gene (hERG) potassium channel (Q12809 whole entry, looked up): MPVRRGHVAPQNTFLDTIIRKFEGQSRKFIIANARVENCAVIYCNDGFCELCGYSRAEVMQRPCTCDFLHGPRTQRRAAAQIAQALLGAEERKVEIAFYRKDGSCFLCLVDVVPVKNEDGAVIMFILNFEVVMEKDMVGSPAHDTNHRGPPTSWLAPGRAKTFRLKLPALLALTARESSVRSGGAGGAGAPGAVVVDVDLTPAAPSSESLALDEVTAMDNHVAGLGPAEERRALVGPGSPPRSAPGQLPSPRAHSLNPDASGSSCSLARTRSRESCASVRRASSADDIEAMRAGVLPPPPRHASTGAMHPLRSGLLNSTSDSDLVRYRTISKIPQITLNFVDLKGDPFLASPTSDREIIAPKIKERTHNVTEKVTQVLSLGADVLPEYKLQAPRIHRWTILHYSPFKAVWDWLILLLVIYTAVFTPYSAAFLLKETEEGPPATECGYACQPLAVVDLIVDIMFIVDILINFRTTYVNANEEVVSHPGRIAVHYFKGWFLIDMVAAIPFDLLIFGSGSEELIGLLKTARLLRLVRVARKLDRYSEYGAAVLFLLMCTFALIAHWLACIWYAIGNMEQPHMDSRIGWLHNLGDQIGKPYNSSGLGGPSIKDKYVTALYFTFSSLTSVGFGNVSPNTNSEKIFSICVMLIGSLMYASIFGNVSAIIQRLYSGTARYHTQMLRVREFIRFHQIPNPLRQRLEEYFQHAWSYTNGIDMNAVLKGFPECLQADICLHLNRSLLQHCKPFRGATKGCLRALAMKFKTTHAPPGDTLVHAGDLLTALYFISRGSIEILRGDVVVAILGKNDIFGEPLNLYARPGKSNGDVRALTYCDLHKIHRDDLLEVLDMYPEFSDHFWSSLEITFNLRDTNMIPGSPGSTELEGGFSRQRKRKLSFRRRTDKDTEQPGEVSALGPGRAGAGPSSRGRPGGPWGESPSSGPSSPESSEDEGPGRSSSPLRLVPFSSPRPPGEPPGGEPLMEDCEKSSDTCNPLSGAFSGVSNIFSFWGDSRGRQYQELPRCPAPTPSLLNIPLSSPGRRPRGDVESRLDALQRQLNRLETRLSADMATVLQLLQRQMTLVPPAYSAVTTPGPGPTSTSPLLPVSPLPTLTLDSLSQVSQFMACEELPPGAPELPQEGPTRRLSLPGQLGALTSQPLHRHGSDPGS
With `COC(CNC(=O)CNC(=S)N(Cc1ccccc1)Cc1cccs1)OC`, the “hERG current change (%, negative = inhibition) at 10uM” value was -7.85%.
Then `O=C(/C=C/c1c(Cl)cccc1Cl)NCc1ccco1`, with 19.9%.
As for `CCOc1cccc(/C=C2/NC(=O)N(CC(=O)Nc3cccc(C)c3)C2=O)c1O`, the “hERG current change (%, negative = inhibition) at 10uM” value stood at 15.1%.
The result for `Cc1cc(C(=O)C(C)Sc2cccc[n+]2[O-])c(C)n1-c1ccc(Cl)cc1` (stereo not drawn) reads -12.8%.
Then `CN(C)C(=O)COc1ncnc2scc(-c3ccc(F)cc3)c12`, with 6.68%; and `CN(C)S(=O)(=O)n1cc(/C=C(\NC(=O)c2ccccc2Cl)C(=O)N2CCCC2)c2ccccc21`, with -1.67%.
The result for `COCCn1c(SCC(=O)Nc2sccc2C(N)=O)nc2cc(Cl)ccc2c1=O` reads -14.6%; that for `CCOc1cc2c(cc1OCC)C(C(=O)O)C(c1cc(OC)c(OC)c(OC)c1)N(C)C2=O` (stereo not drawn), 3.02%.
In the case of `CC(=O)Nc1ccc(OCCF)cc1`, the “hERG current change (%, negative = inhibition) at 10uM” value was found to be 11.8%.
For the compound `Clc1ccc(CSc2nnc3ccccn23)c(Cl)c1`, the “hERG current change (%, negative = inhibition) at 10uM” value was -25.1%.
Then `O=C(Nc1ccc(Cl)cc1)C1CCN(C(=O)c2ccco2)CC1`, with -49%.
Then `CN1N=C(C(=O)Nc2ccc3c(c2)CCC3)CCC1=O`, with 27.6%; and `O=C(c1cccc2ccccc12)N1CCN=C1SCc1ccc([N+](=O)[O-])cc1`, with -10.7%; and `COc1ccc(N(Cc2cc3ccccc3[nH]c2=O)S(=O)(=O)c2ccc(OC)cc2)cc1`, with 2.82%.
Then `CC(Sc1nc2c(c(=O)n(C)c(=O)n2C)n1Cc1cc2c(cc1Cl)OCO2)C(=O)O` (stereo not drawn), with 25.7%; and `Cc1ccccc1OCc1nnc(SCc2cc(=O)[nH]c3ccccc23)n1-c1ccccc1`, with -7.1%; and `CC(=O)NC(Cc1ccc(N(CCCl)CCCl)cc1)C(=O)NC(C(=O)O)C(C)C` (stereo not drawn), with 25%.
Turning to `COC(=O)/C=C/c1c(C)nc(NCc2ccccc2)nc1Cl`, the “hERG current change (%, negative = inhibition) at 10uM” value turned out to be 12.3%.
The result for `COCCN(C(=O)COc1ccc(Cl)cc1)c1nnc(-c2cccnc2)s1.Cl` reads -6.48%; that for `COc1cc(C(=O)NCc2nnc(SCC(=O)NCCc3ccccc3)o2)cc(OC)c1OC`, 18%.
Then `CCN1C(=O)CC(N2CCOCC2)C1=O` (stereo not drawn), with 13.7%.
The result for `COc1ccccc1NC(=O)CSc1nnc(COc2ccc(Cl)cc2)n1Cc1ccco1` reads -12.7%; that for `COc1cc(NC(=O)C2CCCN(c3ncccn3)C2)cc(OC)c1` (stereo not drawn), 0.686%.
As for `CC(=O)NC(CC(=O)NCCN1C(=O)S/C(=C\c2ccccc2)C1=O)c1ccccc1` (stereo not drawn), the “hERG current change (%, negative = inhibition) at 10uM” value was -15.7%.
Regarding `COc1ccc(CN2CCc3c([nH]c4ccccc34)C2)c(OC)c1C`, the “hERG current change (%, negative = inhibition) at 10uM” value is -62.4%.
Regarding `O=C(c1nc2ccc(Cl)cn2c1CNCCn1ccnc1)N1CCCCCCC1`, the “hERG current change (%, negative = inhibition) at 10uM” value is reported as -1.72%.
Take `Cc1cccc(C(=O)Oc2cc(C)[nH]c(=O)c2[N+](=O)[O-])c1`: the “hERG current change (%, negative = inhibition) at 10uM” value was found to be 16.7%.
In the case of `COc1ccccc1-c1cn(S(=O)(=O)c2ccc(F)cc2)nc1N`, the “hERG current change (%, negative = inhibition) at 10uM” value is reported as -4.89%.
With `CC(c1ccccc1)C1CC(=O)N(c2ccccc2)C1=O` (stereo not drawn), the “hERG current change (%, negative = inhibition) at 10uM” value came out at 1.02%.
The result for `COc1ccc(NC(=O)CSCc2cc(=O)n3c(C)csc3n2)cc1` reads 19.1%; that for `CCOc1ccc(S(=O)(=O)NCCCN2CCOCC2)cc1`, 5.84%; that for `CCN(CC)S(=O)(=O)c1cccc(NC(=O)COC(=O)c2cc(C)oc2C)c1`, -18.3%.
Turning to `COc1ccc(CNC(=O)CN(Cc2ccc(F)cc2)C(=O)CCC(=O)Nc2nccs2)cc1`, the “hERG current change (%, negative = inhibition) at 10uM” value is -41.7%.
The result for `COc1cccc(CNc2ccc3c(c2)CCC3)c1` reads 6.64%.
Then `CCc1ccc(OCC(=O)N/N=C/c2ccc(OS(=O)(=O)c3ccc(C)cc3)c(OC)c2)cc1`, with 22.4%.
Then `O=C1CC(c2ccco2)CC2=C1C(c1ccccc1)n1nc(C(F)(F)F)nc1N2` (stereo not drawn), with -3.36%; and `CC[C@H](C)[C@@H](NC(=O)O[C@@H]1C(=O)c2cc(Br)ccc2O[C@H]1c1cccc(OC)c1)C(=O)OC`, with 2.05%.
Consider `CC1CCN(S(=O)(=O)c2ccc(S(=O)(=O)NCC(=O)C(C)(C)C)cc2)CC1`, for which the “hERG current change (%, negative = inhibition) at 10uM” value is 5.25%.
The result for `COc1cc2c(cc1NC(=O)CN(C)Cc1cccc(OC)c1OC)oc1ccccc12` reads 15.1%; that for `CCOC(=O)c1ccc(NS(=O)(=O)c2c(C)[nH]c(C)c2C(=O)N2CCCCC2)cc1`, 7.73%; that for `COc1ccccc1CCn1c(N)cc(=O)[nH]c1=O`, 18.4%.
On to `C/C(=N\NC(=O)c1c(C)nc2ccccn12)c1ccc(N2CCOCC2)cc1`, for which the “hERG current change (%, negative = inhibition) at 10uM” value was -7.51%.
Then `Cc1nn(-c2ccc(F)cc2F)c(=O)c2noc(C)c12`, with 14.5%; and `CCN(C(=O)CCC(=O)N(CC)c1ccccc1)c1ccccc1`, with 6.19%.
Consider `Cc1ccc(NC(=O)CN2C(=O)S/C(=C\c3cc(C)n(-c4cccc(C(=O)O)c4)c3C)C2=O)cc1`, for which the “hERG current change (%, negative = inhibition) at 10uM” value is given as 8.66%.
Then `O=C(Nc1ccc(Cl)cc1C(F)(F)F)c1ccc(Cl)cc1`, with 11.6%.
As to `Cc1ccc(OCc2nc3ccccc3[nH]2)cc1`, the “hERG current change (%, negative = inhibition) at 10uM” value is recorded as -9.02%.
Turning to `NS(=O)(=O)c1ccc(CCNC(=O)CSc2nc3ccsc3c(=O)n2CCCCCC(=O)O)cc1`, the “hERG current change (%, negative = inhibition) at 10uM” value was 30.8%.
With `Cc1ccc(S(=O)(=O)N(CC(=O)N2CCCCCC2)c2ccccc2F)cc1`, the “hERG current change (%, negative = inhibition) at 10uM” value is recorded as -19.4%.
As for `COc1ccccc1NC(=O)C1CCCN1C(=O)NCc1ccccc1` (stereo not drawn), the “hERG current change (%, negative = inhibition) at 10uM” value is reported as 6.94%.
Then `Cn1cc(CN2CCCC(C(=O)c3ccc(-c4ccccc4)c(F)c3)C2)cn1` (stereo not drawn), with -55.4%; and `Cc1ccc(C(=O)N2CC(=O)NC(=O)C2)cc1`, with -4.59%; and `O=C(Nc1nc2c(c(=O)[nH]1)CCCC2)C1CC1`, with 7.44%.
Then `O=S(=O)(Nc1ccc(-c2nc3cccnc3s2)cc1)c1cc(F)ccc1F`, with 7.54%.
The result for `CC(C)OC(=O)c1cccc(-c2ccc(C=O)o2)c1` reads 3.87%; that for `CCN1C(=O)CC(N2CCN(CC(=O)NC(C)C)CC2)C1=O` (stereo not drawn), 14%.
Consider `Cc1ccc2nc(/C(C#N)=C\c3cc(O)ccc3[N+](=O)[O-])[nH]c2c1`, for which the “hERG current change (%, negative = inhibition) at 10uM” value is reported as 38.4%.
The result for `Cc1cc(NC(=O)c2ccc3nc(-c4ccccc4)c(-c4ccccc4)nc3c2)no1` reads 6.59%; that for `COc1ccc(C(=O)NCc2nnc(SCC(=O)N3CCCCCC3)o2)cc1OC`, 16.7%; that for `NNC(=S)Nc1cccc(Cl)c1`, 4.69%.
The result for `O=C(COC(=O)c1cc2ccccc2oc1=O)Nc1cccc(S(=O)(=O)N2CCCCCC2)c1` reads 11.8%; that for `O=C(COC(=O)CCN1C(=O)/C(=C\C=C\c2ccccc2)SC1=S)Nc1cc(F)ccc1F`, 0.14%.
Turning to `Cn1nnc2cc(C(=O)N3CCN(c4ccccn4)CC3)ccc21`, the “hERG current change (%, negative = inhibition) at 10uM” value is on record as 4.53%.
Take `CN(CC(=O)NCc1ccc2c(c1)OCO2)S(=O)(=O)c1ccc(Br)s1`: the “hERG current change (%, negative = inhibition) at 10uM” value was -13.1%.
Then `O=C(c1cc(COc2c(F)cccc2F)on1)N1CCC(c2ccncc2)CC1`, with -38.5%; and `COC(=O)Nc1sc2c(c1C(N)=O)CCC(C)C2` (stereo not drawn), with 0.967%.
With `CCN(CC(=O)Nc1c(F)cccc1F)C(=O)CCCNC(=O)c1ccc(Cl)cc1`, the “hERG current change (%, negative = inhibition) at 10uM” value is recorded as -7.06%.
Regarding `O=C(CSc1ccc(-c2ccccc2)nn1)NCc1ccco1`, the “hERG current change (%, negative = inhibition) at 10uM” value is -6.45%.
Then `CCn1c(SCC(=O)NC2CC2)nnc1-c1ccccc1OC`, with 12.5%; and `Nc1nnc(CC(=O)NCc2ccccc2)s1`, with 4.01%; and `COc1ccc(-c2[nH]ncc2CN2CCSCC2)c(OC)c1`, with 14.7%.
The result for `COc1cc(/C=N/NC(=O)c2ccoc2C)cc(OC)c1O` reads -5.45%; that for `N#C/C(=C\c1cn(Cc2ccc(F)cc2)c2ccccc12)C(=O)NCc1ccco1`, 9.05%; that for `COCC1CCN(C(=O)c2cc(COc3ccc4c(c3)CCCC4)on2)C1` (stereo not drawn), -24.9%.
Then `Cc1cc(C(=S)N2CCOCC2)c(C)n1-c1ccc(Cl)cc1`, with -3.57%; and `CCCCN(C(=O)C(C)Oc1ccc(Br)cc1)c1c(N)n(Cc2ccccc2)c(=O)[nH]c1=O` (stereo not drawn), with -19.5%.
`Cc1ccc2cccc(SCC(=O)N3CCOCC3)c2n1`: the “hERG current change (%, negative = inhibition) at 10uM” value came to 9.37%.
The result for `COc1ccc(C=C2C(=O)N(C)C(=O)N(C)C2=O)cc1CSc1ccccn1` reads -9.43%.
The result for `O=C(CNC(=O)c1ccccc1)OCc1cccc([N+](=O)[O-])c1` reads -12.7%; that for `COc1ccc(C(=O)/C=C/Nc2c(C)n(C)n(-c3ccccc3)c2=O)cc1OC`, -12%; that for `C#CCNc1cc(-c2ccccc2)nc2ncnn12`, -7.98%.
Then `O=C(Nc1ccc(F)cc1)OC1CN2CCC1CC2` (stereo not drawn), with -27.5%; and `CCCNC(=O)CSc1n[nH]c(=O)n1CCc1ccccc1`, with 39.8%; and `Cc1ccc2occ(/C=C/C(=O)c3ccccc3O)c(=O)c2c1`, with -6.8%.
As for `CCOc1cc(/C=N/OC(C)=O)ccc1OCc1ccccc1`, the “hERG current change (%, negative = inhibition) at 10uM” value came out at 2.83%.
`CCC(CC)COC(=O)C1=C(C)NC(=O)NC1c1ccc(OC)cc1` (stereo not drawn): the “hERG current change (%, negative = inhibition) at 10uM” value is given as 6.28%.
Then `CN1C(=O)c2ccc(C(=O)Nc3ccc4c(c3)OCO4)cc2C1=O`, with 14.1%.

These data come from paper PMC4336329 (PLoS ONE, 2015).
